Data on 31 molecules can be found in article PMC9911399, “Two distinct binding modes provide the RNA-binding protein RbFox with extraordinary sequence specificity”.

To fix the notation:
T1: RBFOX1 RRM (Homo sapiens, UniProt Q9NWB1 109-208)
T1 sequence: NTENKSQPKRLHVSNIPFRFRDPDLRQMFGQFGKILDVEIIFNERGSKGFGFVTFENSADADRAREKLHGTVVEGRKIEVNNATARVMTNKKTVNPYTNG

B1: ACCUUUA (DNA:RNA)
RNA: GGGAGACCGGAAUUCAGAUUGUCCACCUUUAUUAAAUCCCGUCGUAGCCACCA
DNA 1: CAATCTGAATTCCGGTCTCCC
DNA 2: TGGTGGCTACGACGGGATT
B2: GAAUAUC (DNA:RNA)
RNA: B1 RNA with A25G, C26A, C27A, U29A, A31C
DNA 1: CAATCTGAATTCCGGTCTCCC
DNA 2: TGGTGGCTACGACGGGATT
B3: GCUCGGA (DNA:RNA)
RNA: B1 RNA with A25G, C27U, U28C, U29G, U30G
DNA 1: CAATCTGAATTCCGGTCTCCC
DNA 2: TGGTGGCTACGACGGGATT
B4: UGCGGCG (DNA:RNA)
RNA: B1 RNA with A25U, C26G, U28G, U29G, U30C, A31G
DNA 1: CAATCTGAATTCCGGTCTCCC
DNA 2: TGGTGGCTACGACGGGATT
B5: UGUUGAG (DNA:RNA)
RNA: B1 RNA with A25U, C26G, C27U, U29G, U30A, A31G
DNA 1: CAATCTGAATTCCGGTCTCCC
DNA 2: TGGTGGCTACGACGGGATT
B6: GCACGGC (DNA:RNA)
RNA: B1 RNA with A25G, C27A, U28C, U29G, U30G, A31C
DNA 1: CAATCTGAATTCCGGTCTCCC
DNA 2: TGGTGGCTACGACGGGATT
B7: AGGCCUA (DNA:RNA)
RNA: B1 RNA with C26G, C27G, U28C, U29C
DNA 1: CAATCTGAATTCCGGTCTCCC
DNA 2: TGGTGGCTACGACGGGATT
B8: CACGAUG (DNA:RNA)
RNA: B1 RNA with A25C, C26A, U28G, U29A, A31G
DNA 1: CAATCTGAATTCCGGTCTCCC
DNA 2: TGGTGGCTACGACGGGATT
B9: CCAUCGG (DNA:RNA)
RNA: B1 RNA with A25C, C27A, U29C, U30G, A31G
DNA 1: CAATCTGAATTCCGGTCTCCC
DNA 2: TGGTGGCTACGACGGGATT
B10: AGAACAG (DNA:RNA)
RNA: B1 RNA with C26G, C27A, U28A, U29C, U30A, A31G
DNA 1: CAATCTGAATTCCGGTCTCCC
DNA 2: TGGTGGCTACGACGGGATT
B11: AUUAAUU (DNA:RNA)
RNA: B1 RNA with C26U, C27U, U28A, U29A, A31U
DNA 1: CAATCTGAATTCCGGTCTCCC
DNA 2: TGGTGGCTACGACGGGATT
B12: CUAUGGC (DNA:RNA)
RNA: B1 RNA with A25C, C26U, C27A, U29G, U30G, A31C
DNA 1: CAATCTGAATTCCGGTCTCCC
DNA 2: TGGTGGCTACGACGGGATT
B13: GGAGACC (DNA:RNA)
RNA: GGGAGACCGGAAUUCAGAUUGUCCGGAGACCUUAAAUCCCGUCGUAGCCACCA
DNA 1: CAATCTGAATTCCGGTCTCCC
DNA 2: TGGTGGCTACGACGGGATT
B14: UACCGAG (DNA:RNA)
RNA: B1 RNA with A25U, C26A, U28C, U29G, U30A, A31G
DNA 1: CAATCTGAATTCCGGTCTCCC
DNA 2: TGGTGGCTACGACGGGATT
B15: CCAGAUU (DNA:RNA)
RNA: B13 RNA with G25C, G26C, C30U, C31U
DNA 1: CAATCTGAATTCCGGTCTCCC
DNA 2: TGGTGGCTACGACGGGATT
B16: GGGCCGU (DNA:RNA)
RNA: B13 RNA with A27G, G28C, A29C, C30G, C31U
DNA 1: CAATCTGAATTCCGGTCTCCC
DNA 2: TGGTGGCTACGACGGGATT
B17: GGUUUGA (DNA:RNA)
RNA: B1 RNA with A25G, C26G, C27U, U30G
DNA 1: CAATCTGAATTCCGGTCTCCC
DNA 2: TGGTGGCTACGACGGGATT
B18: AUAGUAA (DNA:RNA)
RNA: B1 RNA with C26U, C27A, U28G, U30A
DNA 1: CAATCTGAATTCCGGTCTCCC
DNA 2: TGGTGGCTACGACGGGATT
B19: CCGUGUC (DNA:RNA)
RNA: B1 RNA with A25C, C27G, U29G, A31C
DNA 1: CAATCTGAATTCCGGTCTCCC
DNA 2: TGGTGGCTACGACGGGATT
B20: UGCCUCG (DNA:RNA)
RNA: B1 RNA with A25U, C26G, U28C, U30C, A31G
DNA 1: CAATCTGAATTCCGGTCTCCC
DNA 2: TGGTGGCTACGACGGGATT
B21: GGCAUUC (DNA:RNA)
RNA: B1 RNA with A25G, C26G, U28A, A31C
DNA 1: CAATCTGAATTCCGGTCTCCC
DNA 2: TGGTGGCTACGACGGGATT
B22: GUUGGAG (DNA:RNA)
RNA: B13 RNA with G26U, A27U, A29G, C30A, C31G
DNA 1: CAATCTGAATTCCGGTCTCCC
DNA 2: TGGTGGCTACGACGGGATT
B23: GCCAAAG (DNA:RNA)
RNA: B1 RNA with A25G, U28A, U29A, U30A, A31G
DNA 1: CAATCTGAATTCCGGTCTCCC
DNA 2: TGGTGGCTACGACGGGATT
B24: CGGCCGU (DNA:RNA)
RNA: B13 RNA with G25C, A27G, G28C, A29C, C30G, C31U
DNA 1: CAATCTGAATTCCGGTCTCCC
DNA 2: TGGTGGCTACGACGGGATT
B25: CUCACCG (DNA:RNA)
RNA: B1 RNA with A25C, C26U, U28A, U29C, U30C, A31G
DNA 1: CAATCTGAATTCCGGTCTCCC
DNA 2: TGGTGGCTACGACGGGATT
B26: AUUUAUU (DNA:RNA)
RNA: B1 RNA with C26U, C27U, U29A, A31U
DNA 1: CAATCTGAATTCCGGTCTCCC
DNA 2: TGGTGGCTACGACGGGATT
B27: GCACGCA (DNA:RNA)
RNA: B13 RNA with G26C, G28C, A29G, C31A
DNA 1: CAATCTGAATTCCGGTCTCCC
DNA 2: TGGTGGCTACGACGGGATT
B28: GCCAGAA (DNA:RNA)
RNA: B1 RNA with A25G, U28A, U29G, U30A
DNA 1: CAATCTGAATTCCGGTCTCCC
DNA 2: TGGTGGCTACGACGGGATT
B29: UACGCGG (DNA:RNA)
RNA: B1 RNA with A25U, C26A, U28G, U29C, U30G, A31G
DNA 1: CAATCTGAATTCCGGTCTCCC
DNA 2: TGGTGGCTACGACGGGATT
B30: GCGAAUA (DNA:RNA)
RNA: B1 RNA with A25G, C27G, U28A, U29A
DNA 1: CAATCTGAATTCCGGTCTCCC
DNA 2: TGGTGGCTACGACGGGATT
B31: CCGUGUU (DNA:RNA)
RNA: B1 RNA with A25C, C27G, U29G, A31U
DNA 1: CAATCTGAATTCCGGTCTCCC
DNA 2: TGGTGGCTACGACGGGATT

Substitutions are numbered along the chain they refer to; changes in the protein carry UniProt numbers. The list shows a part of the results.

The target in this test is T1, RBFOX1 RRM. As to the kind of experiment: EMSA; HiTS-Eq, 1 nM pool, 10 min; buffer printed only for the single-RNA assays: 10 mM Tris pH 7.5, 150 mM NaCl, 3.4 mM EDTA, 0.001% NP-40, 30 C. To be noted: tags: His6 N-terminal (pET28a); label: 5' 32P. Summed up:
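A pool of RNA with 7 randomized nucleotides, 5′-radiolabelled and with DNA-annealed flanks, was equilibrated at 1 nM for 10 min in 50 µL with purified RbFox RRM, wild type or mutant, across increasing protein concentrations. Free RNA was separated by 8% native PAGE, excised, reverse-transcribed, barcoded by PCR and sequenced. Relative association constants were obtained from read-count changes of each RNA species versus the control reaction and normalised to the cognate motif.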
For B1, the binding signal is 0.00173 KA relative to UGCAUGU.
The value for B2 was 0.00604 KA relative to UGCAUGU; that for B3 was 0.0169 KA relative to UGCAUGU.
The value for B4 was 0.0232 KA relative to UGCAUGU; that for B5 was 0.0304 KA relative to UGCAUGU.
With B6, the binding signal is 0.0257 KA relative to UGCAUGU.
The value for B7 was 0.00424 KA relative to UGCAUGU; that for B8 was 0.00624 KA relative to UGCAUGU; that for B9 was 0.0083 KA relative to UGCAUGU.
Then B10, with 0.00292 KA relative to UGCAUGU; and B11, with 0.00238 KA relative to UGCAUGU; and B12, with 0.0113 KA relative to UGCAUGU.
Then B13, with 0.0127 KA relative to UGCAUGU.
Take B14: the binding signal is 0.00817 KA relative to UGCAUGU.
The value for B15 was 0.00446 KA relative to UGCAUGU; that for B16 was 0.0153 KA relative to UGCAUGU.
Then B17, with 0.0285 KA relative to UGCAUGU; and B18, with 0.00255 KA relative to UGCAUGU; and B19, with 0.0124 KA relative to UGCAUGU.
In the case of B20, the binding signal was 0.0235 KA relative to UGCAUGU.
The value for B21 was 0.0151 KA relative to UGCAUGU.
For the molecule B22, the binding signal was 0.0099 KA relative to UGCAUGU.
The value for B23 was 0.00764 KA relative to UGCAUGU.
Then B24, with 0.0175 KA relative to UGCAUGU.
The value for B25 was 0.00326 KA relative to UGCAUGU; that for B26 was 0.00187 KA relative to UGCAUGU.
Consider B27, for which the binding signal was 0.0261 KA relative to UGCAUGU.
In the case of B28, the binding signal was 0.0129 KA relative to UGCAUGU.
Then B29, with 0.0108 KA relative to UGCAUGU.
With B30, the binding signal is 0.0051 KA relative to UGCAUGU.
The value for B31 was 0.0087 KA relative to UGCAUGU.
